Among all 350,000 compounds or so, about 9,900 (2.8%) were called active. Inconclusive means that the source gave no clear call. Such entries were picked first, then a sample of the others. Calls follow the shape of the dose curve; as a rule, active = well fitted activation curve with a large enough effect; inconclusive = small, poorly fitted or top-dose-only effect; inactive = no such curve, though single readings can be large or run the other way. No potency is given beside an inconclusive call; the fits are too rough.
Experiment: A quantitative high throughput screen for small molecules that induce DNA re-replication in MCF 10a normal breast cells. Also: nearly all actives have a fitted effect of over 50% in size. As to activity, positive = re-replication: % of control where 0% means no effect.
Settings: MCF 10A DNA re-replication, Hoechst nuclear intensity, 48 h; activity, positive = re-replication: at 46.1 µM (top of the series)
Potency is read from the fitted curve at half-maximal effect; tags tell the direction and shape of the fitted curve.

SMILES	Potency	activity, positive = re-replication
Cc1cc(NC(=O)Cc2ccc(Br)cc2)no1	inconclusive [activator, partial curve, poor fit]	–
C#C[C@]1(OC(C)=O)CC[C@H]2[C@@H]3CCC4=C/C(=N/O)CC[C@@H]4[C@H]3CC[C@@]21CC	inconclusive [activator, single point]	–
CCOc1ccc2nc(NCCNC(=S)NCCCN(C)C)c(C#N)cc2c1	active: 11.6 µM	–
Cc1sc2ncnc(SCC(=O)NNC(=O)c3ccco3)c2c1C	–	inactive: -2.59%
CN1C(=O)C(O)(CC(=O)c2ccccn2)c2cc(Br)ccc21 (configuration not stated)	inconclusive [activator, single point]	–
CN(C)CCn1c(=O)n(-c2ccc(F)cc2)c(=O)c2c3c(sc21)CCCCC3	inconclusive [activator, single point]	–
O=C(/C=C/C=C/c1ccc2c(c1)OCO2)N1CCCCC1	–	inactive: -16.4%
COc1ccc(OC)c(C2CC(=O)c3c([nH]c(C(=O)OCC4CCCO4)c3C)C2)c1 (configuration not stated)	active: 14.6 µM	–
O=S1(=O)[C@H]2C[C@H](CO)O[C@@]2(CO)CN1Cc1ccc(-c2ccc(F)cc2)cc1	inconclusive [activator, single point]	–
COc1cccc(CNC(=O)C(=O)NCCC2CCCCN2S(=O)(=O)c2cccs2)c1 (configuration not stated)	–	inactive: 2.69%
Cc1ccccc1-n1c(SCc2cc(=O)n3ccccc3n2)nc2[nH]ncc2c1=O	inconclusive [activator, single point]	–
Cc1ccc(OCC(O)Cn2c(=N)n(Cc3ccccc3)c3ccccc32)cc1 (configuration not stated)	inconclusive [activator, single point]	–
CC(C)(C)NC(=O)CSc1nc(Cc2ccccc2)nc2ccccc12	active: 0.651 µM	–
CC(C)(C)NS(=O)(=O)c1cccc(S(=O)(=O)c2cccc(S(=O)(=O)NC(C)(C)C)c2)c1	–	inactive: 21.1%
CCOC(=O)N1CCC(n2c(=S)[nH]c3cc(OCC)c(OCC)cc3c2=O)CC1	inconclusive [activator, single point]	–
COc1ccc2[nH]c(CN3CCN(CC=C(C)C)C(CCO)C3)c(C)c2c1 (configuration not stated)	active: 16.4 µM	–
Cc1cc2c(cc1C)NC(c1c(C)n(C)n(-c3ccccc3)c1=O)C1=C(CC(C)(C)CC1=O)N2 (configuration not stated)	active: 11.2 µM	–
COc1ccc([C@H]2CC(=O)C=C(c3cccc(F)c3OC)C2)cc1	inconclusive [activator, single point]	–
CC1=NN(C(=O)c2cccc(Cn3nc(C)c([N+](=O)[O-])c3C)c2)C(O)(C(F)(F)F)C1 (configuration not stated)	active: 5.8 µM	–
CN(C)/C=C(\C#N)C(=O)N/N=C(\CC(=O)C(F)(F)F)c1ccco1	–	inactive: 2.39%
Cc1ccccc1C(=O)N1CCC2CC1c1cc(Cl)ccc12 (configuration not stated)	–	inactive: -0.0039%
CCc1nc2ccccc2c(=O)n1NC(=O)c1c(O)c2ccccc2[nH]c1=O	inconclusive [activator, partial curve, poor fit]	–
COc1ccc(C2CC(=O)Nc3sc(=N)c4c(N)c(C#N)c(N)nc4c32)cc1OC (configuration not stated)	–	inactive: -0.0368%

SMILES	Potency	activity, positive = re-replication
COc1cccc(C(C(=O)NC2CCCCC2)N(CCN2CCOCC2)C(=O)C2COc3ccccc3O2)c1 (configuration not stated)	inconclusive [activator, single point]	–
O=C(NCC(=O)N1CCN(S(=O)(=O)c2ccccc2F)CC1)c1ccc2c(c1)OCO2	inconclusive [activator, full curve, poor fit]	–
COc1ccc(Nc2nc(CN3CCOCC3)nc3sc4c(c23)CCC(C)C4)cc1OC (configuration not stated)	–	inconclusive: -65.5% [activator]
Cc1nc(NC(=O)c2cccc(-c3cc4ccccc4oc3=O)c2)ccc1Br	active: 20.6 µM	–
Cn1nnnc1SCC(=O)N1c2ccccc2CCc2ccccc21	inconclusive [activator, full curve, poor fit]	–
Cc1nc2c(-c3ccccc3)cnn2c(N)c1-c1ccccc1	inconclusive [activator, single point]	–
O=C(NCC1CCCO1)c1sc2ccccc2c1Cl (configuration not stated)	–	inactive: -0.568%
O=C(COc1cccc(NC(=O)c2cccc([N+](=O)[O-])c2)c1)c1ccc(Br)cc1	–	inactive: 28.4%
CC1CCCN(C(=O)c2ccc(-c3ccccc3Cl)o2)C1 (configuration not stated)	inconclusive [activator, partial curve]	–
Cc1csc(NC(=O)c2ccc(S(=O)(=O)N(C)c3ccccc3)cc2)n1	inconclusive [activator, full curve, poor fit]	–
Cc1cc(C)n(CCC(=O)N/N=C/c2ccc(Br)c([N+](=O)[O-])c2)n1	–	inactive: 11.5%
O=C(Nc1nc2ccccc2[nH]1)c1ccccc1F	inconclusive [activator, partial curve, poor fit]	–
CC1CN(C(=O)N2c3ccccc3Sc3ccccc32)CC(C)O1 (configuration not stated)	inconclusive [activator, partial curve]	–
Cc1ccccc1CSc1nc2ccccc2c(=O)n1C	–	inactive: -2.22%
COc1ccc(NC(=O)C=C(C)C)cc1Cl	inconclusive [activator, single point]	–
Cc1cc(-n2c(C)cc(C(=S)N3CCOCC3)c2C)ccc1Br	inconclusive [activator, partial curve]	–
NNC(=O)c1ccc(N2CCc3ccccc32)c([N+](=O)[O-])c1	inconclusive [activator, partial curve, poor fit]	–
COc1ccc(C(CNC(=O)c2cccc(NS(=O)(=O)c3ccc(Br)cc3)c2)N(C)C)cc1 (configuration not stated)	inconclusive [activator, single point]	–
O=C(CCCOc1ccc(Cl)cc1Cl)N/N=C/c1cccc([N+](=O)[O-])c1	inconclusive [activator, single point]	–
COc1ccccc1OCCCn1c(C)c(C#N)c2ccccc21	inconclusive [activator, partial curve, poor fit]	–
CCc1ccc(NC(=O)COC(=O)/C(=C/c2ccccc2OC)c2ccccc2)cc1	inconclusive [activator, single point]	–
Cc1sc(-c2c(C#N)c(N)nc3c2CCCCCC3)cc1[N+](=O)[O-]	inconclusive [activator, partial curve, poor fit]	–
COc1cccc(CC2(CO)CCCN(Cc3ccc(OC(F)F)cc3)C2)c1 (configuration not stated)	–	inactive: 11.3%

SMILES	Potency	activity, positive = re-replication
Cn1c(N)c(C(=O)COC(=O)C2(c3cccc(F)c3)CCCC2)c(=O)n(C)c1=O	inconclusive [activator, full curve, poor fit]	–
CCN(CC)CCNC(=O)C(C)c1nn(CC)c(=O)c2ccccc12 (configuration not stated)	–	inactive: 1.86%
CCOc1cc(C(=O)OCC(=O)Nc2ncc(Cl)c(C)c2Cl)ccc1OCC(=O)N1CCOCC1	–	inactive: 5.04%
CCN(CC)Cc1cc(Nc2ccnc3cc(Cl)ccc23)ccc1O	inconclusive [activator, partial curve, poor fit]	–
CCCC1=[N+](CC)CCn2c(C)ccc21	–	inactive: 0.774%
CC(=O)N(c1ccc2oc(=O)sc2c1)S(=O)(=O)c1ccc(C)cc1	inconclusive [activator, single point]	–
COc1ccccc1COc1ccc2c(C)c(CCC(=O)O)c(=O)oc2c1C	–	inactive: -13.8%
O=C(c1ccc(Cn2c(=S)[nH]c3ccc(N4CCOCC4)cc3c2=O)cc1)N1CCN(c2ccc(F)cc2)CC1	active: 4.61 µM	–
Cc1cc(NC(=O)c2cc(-c3ccccn3)nc3c(Cl)cccc23)no1	inconclusive [activator, single point]	–
COc1cccc(-n2c(SCC(=O)NCCC3=CCCCC3)nc3n[nH]c(C)c3c2=N)c1	inconclusive [activator, single point]	–
COc1ccc(OC)c(C(=O)C2COC(=O)C2)c1 (configuration not stated)	inconclusive [activator, single point]	–
COc1ccc(OC)c(N2C(=O)CCCC2=O)c1	inconclusive [activator, partial curve, poor fit]	–
CCCc1cc(=O)oc2c3c(cc(OCC(=O)NCCCn4ccnc4)c12)OC(C)(C)CC3	inconclusive [activator, partial curve, poor fit]	–
N#C/C(=C/c1ccc(N2CCCCCC2)o1)c1ccc(F)cc1	active: 3.26 µM	–
CCOc1cc(NC(=O)c2ccccn2)c(OCC)cc1NC(=O)c1cccc(C)c1	inconclusive [activator, single point]	–
COc1ccc([C@H]2CC(=O)C=C(c3ccc(OC(F)(F)F)cc3)C2)cc1	inconclusive [activator, single point]	–
COc1cccc(-c2nc(N3CCN(C)CC3)c3ccccc3n2)c1O	inconclusive [activator, partial curve, poor fit]	–
CCS(=O)(=O)N1Cc2ccccc2CC1C(=O)N1CCN(c2cccc(C)c2C)CC1 (configuration not stated)	–	inactive: 363% [at 0.0737 µM]
C[C@H](CO)N1C[C@H](C)[C@@H](CN(C)S(=O)(=O)c2ccccc2)Oc2c(NC(=O)Nc3ccc(C(F)(F)F)cc3)cccc2C1=O	inconclusive [activator, single point]	–
Cc1ccc(S(=O)(=O)N2CCN(C(=O)COC(=O)c3ccc(C(C)(C)C)cc3)CC2)c(C)c1	inconclusive [activator, single point]	–
CC(=O)C1=C(O)C(=O)N(c2ccc(Br)cn2)C1c1ccc(Br)cc1 (configuration not stated)	inconclusive [activator, full curve, poor fit]	–

Reference: PubChem BioAssay AID624296 (National Center for Advancing Translational Sciences (NCATS), 2012)
